PubChem BioAssay AID540267 (National Center for Advancing Translational Sciences (NCATS), 2011)
The campaign covered roughly 340,000 compounds. About 530 (0.16%) were called active. The inconclusive results got no clear call from the source; some entries with a clear call stand among them for comparison. No stated cut-off is given here; in the data, active means activity change below about -80%; inconclusive means between about -30% and that limit; inactive means weaker than that.
On the % scale 0 is the no-effect control and ±100 the full control effect.

Test: Small Molecules that selectively kill Giardia lamblia: qHTS;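 further: parasites exposed to compound for two days anaerobically before the ATP read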
Details: Giardia lamblia trophozoite viability; at 7.66 µM; stronger effect = lower value
Method in brief: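 Viability, read as ATP luminescence: trophozoites at 100 cells/well, compound added, 48 hrs anaerobic at 37 deg C, then 15-30 min room-temperature development before reading.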
In the case of Cc1cccc(NC(=O)CNC(=O)COc2ccc(C(=O)c3ccc(F)cc3)cc2)c1C, the activity change is reported as inactive: -15.5%. With O=C(NCc1ccc(Cl)cc1)C1CCN(C(=O)Cc2ccccc2)CC1 the activity change was inactive: -4.32%. In the case of COc1cc(NC(=O)C2CC(c3c(F)cccc3Cl)=NO2)cc(OC)c1OC (stereo not given), the activity change is reported as inconclusive: -38.8% [inhibitor]. With NS(=O)(=O)c1ccc(N2N=C(c3ccccc3)CC2c2ccccc2)cc1 (stereo not given) the activity change was inconclusive: -30% [inhibitor]. In the case of Cc1ccc(C(=O)Nc2ccc3ncccc3c2)cc1, the activity change is reported as active: -84.8%. With CCCCCCOC(=O)CCc1c(C)nc(N)[nH]c1=O the activity change was inconclusive: -31.6% [inhibitor]. For Cc1cc(NC(=O)CCN2C(=O)C3C4CCC(C4)C3C2=O)c(C)cc1Br (stereo not given), the activity change was inactive: 12.1%. With CC1=NNC(=O)C1CC(=O)N/N=C/c1ccncc1 (stereo not given) the activity change was inconclusive: -35.7% [inhibitor]. With CCC(C)(C)NC(=O)CN(Cc1ccc2c(c1)OCO2)C(=O)CCC(=O)Nc1cc(C)ccn1 the activity change was inactive: 0.384%. In the case of O=C(Nc1cccc(O)c1)C(=O)Nc1ccccn1, the activity change is reported as inconclusive: -56% [inhibitor]. For CCOC(=O)N1CCC(NC(=O)c2ccc(CS(=O)(=O)c3ccc(OC)cc3)o2)CC1, the activity change was inconclusive: -40% [inhibitor]. For COc1cc(Cl)ccc1NC(=S)N(CCN1CCOCC1)C1CCN(C(C)=O)CC1, the activity change was inconclusive: -36.3% [inhibitor]. With CCOc1ccc(NC(=O)Nc2ccc3nsnc3c2)cc1 the activity change was inactive: 2.12%. For CCCN(CC(=O)Nc1ccc(F)c(F)c1F)C(=O)Cc1ccc(S(=O)(=O)N2CCOCC2)s1, the activity change was inconclusive: -38% [inhibitor]. With Cc1ccc(C(NC(=O)CN2C(=O)NC3(CCCC3)C2=O)c2ccccc2)cc1 (stereo not given) the activity change was inconclusive: -39.1% [inhibitor]. With CC#CC(=O)N1CCC(CCC(=O)N(C)Cc2ccccc2)CC1 the activity change was inconclusive: -31.5% [inhibitor]. With CC[C@@H]1[C@H]2CCCC(=O)N3CC[C@@H](C[C@@H]1Nc1ccccc1)[C@@H]23 the activity change was inconclusive: -33.7% [inhibitor]. In the case of CC(Nc1nc(-c2ccc(F)cc2)cs1)c1nc2cc(Cl)c(Cl)cc2n1CCCO (stereo not given), the activity change is reported as inactive: -20.9%. In the case of COc1ccc(CN2CCC(N(CCc3ccccc3)Cc3ccccc3)CC2)c(OC)c1, the activity change is reported as inactive: -7.88%. With COc1cccc(N2CCN(CC(=O)Nc3ccc(S(=O)(=O)N4CCCCCC4)cc3)CC2)c1 the activity change was inactive: -1.84%. With NC(=O)c1ccccc1NS(=O)(=O)c1cccs1 the activity change was inconclusive: -30.7% [inhibitor]. With CC(C)Nc1nc(NC(C)C)nc(C(=O)OCCO)n1 the activity change was inconclusive: -37.4% [inhibitor]. With COC(=O)C1=C(C(=O)OC)[C@@H]2N(Cc3ccccc3)c3ccccc3[C@@]23C[C@@H](C(=O)OC)N(C(=O)c2cc(C)oc2C)C3=N1 the activity change was inactive: 6.29%. For NC1=NN=C(c2ccc3c(c2)OCCO3)CS1, the activity change was inactive: -15.9%. With CCCn1cc(CN2CCCC(C(=O)c3ccc4c(c3)OCO4)C2)c(C)n1 (stereo not given) the activity change was inconclusive: -38% [inhibitor]. In the case of COc1cccc(C(=O)Nc2nc3ccccc3[nH]2)c1, the activity change is reported as inconclusive: -63.4% [inhibitor]. With COc1ccc2c(c1)OCC(O)(c1ccccc1)C2=O (stereo not given) the activity change was inactive: 12.7%. In the case of O=C(Cc1ccc(Cl)cc1)Nc1ncc([N+](=O)[O-])s1, the activity change is reported as active: -90.9%. For CCOC(=O)CCN, the activity change was inconclusive: -34.4% [inhibitor]. With Cc1cccnc1NC(=O)c1ccc([N+](=O)[O-])o1 the activity change was inconclusive: -70.4% [inhibitor]. With O=C(Nc1nccs1)c1ccc(-c2ccc(F)cc2)o1 the activity change was inconclusive: -32.1% [inhibitor]. With CCCCC1=CC2=C(c3ccco3)C(=O)C(C)(OC(=O)c3ccc(OC)cc3)C(=O)C2=CN1CCc1ccccn1 (stereo not given) the activity change was inconclusive: -33.8% [inhibitor]. For Cc1nn(-c2nc3ccccc3[nH]2)c(=O)c2ccccc12, the activity change was active: -96.9%. With Cn1cc([N+](=O)[O-])c(C(=O)NCc2cc3ccccc3[nH]2)n1 the activity change was inconclusive: -34.8% [inhibitor]. For CCOC(=O)C1=C(N)OC2=C(C(=O)CC(C)(C)C2)C1c1ccc(C)s1 (stereo not given), the activity change was inactive: -0.0339%. In the case of O=C(NC1CCCc2ccccc21)C1CCCN(S(=O)(=O)c2cnc[nH]2)C1 (stereo not given), the activity change is reported as inconclusive: -30.2% [inhibitor]. With Cc1ccc(C)c(-n2c(-c3ccncc3)n[nH]c2=S)c1 the activity change was inactive: -6.89%. In the case of CC(=O)OCC1(C)CN(c2ccccc2)NC1=O (stereo not given), the activity change is reported as inconclusive: -30.4% [inhibitor]. In the case of CC(Oc1ccc(F)cc1)C(=O)Nc1ccccc1C(=O)N1CCCCC1 (stereo not given), the activity change is reported as inactive: -21.8%. With COc1ccc(NS(=O)(=O)c2ccc(C)cc2)c([N+](=O)[O-])c1 the activity change was inconclusive: -61.2% [inhibitor]. In the case of CC(C)(C)c1cc(C(=O)N/N=C/c2ccc([N+](=O)[O-])s2)n[nH]1, the activity change is reported as active: -93%. In the case of COc1cccc(C(=O)Nc2ccc(NC(=O)C3CC3)cn2)c1, the activity change is reported as inconclusive: -32.2% [inhibitor]. For CCOc1cccc(C2C=C(c3ccc4c(c3)OCO4)NC(c3ccccc3Cl)N2)c1O (stereo not given), the activity change was inconclusive: -33% [inhibitor]. For CN(Cc1ccccc1N1CCCC1)C(=O)c1cc2cc(Cl)ccc2o1, the activity change was inconclusive: -34.9% [inhibitor]. With CC(=O)NC(CC(=O)Nc1ccc(S(=O)(=O)NC2=NCCCCC2)cc1)c1ccccc1 (stereo not given) the activity change was inactive: 5.73%. In the case of CCS(=O)(=O)Nc1cccc(-c2cn3c(n2)SCC3)c1, the activity change is reported as inconclusive: -31.7% [inhibitor]. With Cc1c(C(=O)O)oc2ccc(S(=O)(=O)NC3CCCCCCC3)cc12 the activity change was inconclusive: -30.8% [inhibitor]. With CC(C)(C)c1ccc(C(=O)N2CCN(CCNC(=O)C(=O)NCc3ccccc3)CC2)cc1 the activity change was inconclusive: -35.6% [inhibitor]. For COc1ccccc1CNC(=O)CC(C)c1ccccc1 (stereo not given), the activity change was inactive: -6.92%. With O=C(CCNC(=O)c1ccc(Cl)cc1)Nc1cccc(S(=O)(=O)N2CCCCCC2)c1 the activity change was inactive: -12.9%.
